Measurements: PubChem BioAssay AID2147 (National Center for Advancing Translational Sciences (NCATS), 2009)
Among all 230,000 compounds or so, about 3,600 (1.6%) were called active. The inconclusive results got no clear call from the source; some entries with a clear call stand among them for comparison. Calls follow the shape of the dose curve; as a rule, active = well fitted inhibition curve with a large enough effect (not every such curve was filed as active); inconclusive = small, poorly fitted or top-dose-only effect, or another doubt; inactive = no such curve, though single readings can be large or run the other way. Where the call is inconclusive, the potency comes from a doubtful curve fit.

target: Lysine-specific demethylase 4E (Homo sapiens) (UniProt B2RXH2); test: qHTS Assay for Inhibitors of Human Jumonji Domain Containing 2E (JMJD2E); settings: JMJD2E catalytic domain, FDH-coupled NADH fluorescence (FDH is formaldehyde dehydrogenase); series mostly up to 57.1 µM
Sequence of UniProt B2RXH2 (B2RXH2 whole entry, looked up, the tested form may be a part): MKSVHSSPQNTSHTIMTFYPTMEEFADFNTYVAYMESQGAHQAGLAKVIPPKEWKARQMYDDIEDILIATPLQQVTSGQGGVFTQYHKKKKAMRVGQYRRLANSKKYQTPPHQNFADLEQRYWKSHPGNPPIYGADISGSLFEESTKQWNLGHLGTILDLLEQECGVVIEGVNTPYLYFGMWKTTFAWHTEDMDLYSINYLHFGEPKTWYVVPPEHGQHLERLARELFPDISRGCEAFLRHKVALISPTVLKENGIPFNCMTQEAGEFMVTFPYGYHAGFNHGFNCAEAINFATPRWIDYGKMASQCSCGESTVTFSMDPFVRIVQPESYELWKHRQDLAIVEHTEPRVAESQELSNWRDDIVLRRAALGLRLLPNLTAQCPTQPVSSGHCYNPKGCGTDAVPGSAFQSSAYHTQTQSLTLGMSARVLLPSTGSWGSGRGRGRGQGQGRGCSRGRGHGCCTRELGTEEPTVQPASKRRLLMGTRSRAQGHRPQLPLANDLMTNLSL
Also: nearly all actives have a fitted effect of over 50% in size.
Potency is read from the fitted curve at half-maximal effect; tags tell the direction and shape of the fitted curve.

Structure (SMILES) | Potency
COc1ccc(C2Cc3ccccc3C(=O)O2)cc1 (configuration not stated) | inactive
Cc1cccc(-n2nnnc2-c2cnccc2C(F)(F)F)c1C | inactive
COc1ccccc1-c1cc(C(=O)NCCN2CCOCC2)no1 | inconclusive: 28.2 µM [inhibitor, single point]
O=C(O)c1ccc(C=C(c2nc3ccccc3s2)c2nc3ccccc3s2)cc1 | inactive
CCC1CCCCN1c1cc(C)nc2cc(-c3cccc(C)c3)nn12 (configuration not stated) | inconclusive: 35.5 µM [inhibitor, single point]
O=C(CSc1nnc(NC(=O)c2ccco2)s1)NCc1ccc2c(c1)OCO2 | inconclusive: 35.5 µM [inhibitor, single point]
c1ccc(-n2nc3ccccc3n2)cc1 | inconclusive: 28.2 µM [inhibitor, single point]
CCN(c1ccccc1)c1nc2ccsc2c(=O)s1 | inconclusive: 39.8 µM [inhibitor, single point]
CCN1/C(=C/c2ccc3cc(C)cc(C)c3[n+]2CC)Sc2cc(C)ccc21 | inconclusive: 35.5 µM [inhibitor, single point]
CC1(C)CC(N2CCN(C(c3ccccc3)c3ccccc3)CC2)=CC(=[N+]2CCCCC2)C1 | inconclusive: 12.6 µM [inhibitor, partial curve]
CC(=O)Oc1ccc(N2C(=O)CCC2=O)cc1 | inactive
COc1cc(/C=N/NS(=O)(=O)c2ccccc2)ccc1OS(=O)(=O)c1ccc(C)cc1 | inactive
O=c1c2[nH]c3ccc(F)cc3c2ncn1CCCN1CCOCC1 | inconclusive: 31.6 µM [inhibitor, partial curve]
CC(=O)c1ccc(COC(=O)c2ccccc2NC(=O)C(C)C)cc1 | inconclusive: 39.8 µM [inhibitor, single point]
COCCn1nnnc1C(c1cccs1)N1CCN(c2ccccc2)CC1 (configuration not stated) | inactive
CN(C)S(=O)(=O)c1cccc(NC(=S)N/N=C/c2cc(Br)ccc2O)c1 | active: 10 µM
Cc1cc(=O)n2[nH]c(=O)c(N=Nc3ccccc3)c2[nH]1 | inactive
COc1cccc(-c2nn(C)c3sc(C(=O)N4CCN(c5ccccc5)CC4)cc23)c1 | inconclusive: 28.2 µM [inhibitor, single point]
COc1ccc2[nH]c(=O)c(CN(C(=O)c3cccnc3)c3cccc(C)c3)cc2c1 | inconclusive: 25.1 µM [inhibitor, partial curve]
Cc1c(C=O)c(Cl)n(C)c(=O)c1C#N | active: 20 µM
CC1(C)CC(=O)c2ccc(O)cc2O1 | inconclusive: 25.1 µM [inhibitor, single point]
COC(=O)c1ccccc1NC(=O)Cn1c(SC)c(F)cnc1=O | inactive
CCOC(=O)c1cnc2cc(C)ccn2c1=O | inconclusive: 28.2 µM [inhibitor, partial curve]
Cc1ccc2c(COC(=O)c3n[nH]c4ccccc34)cc(=O)oc2c1 | inconclusive: 39.8 µM [inhibitor, single point]

Structure (SMILES) | Potency
Cc1nn(CCc2nn[nH]n2)c2nc(C(F)(F)F)cc(C(F)(F)F)c12 | inconclusive: 28.2 µM [inhibitor, partial curve]
COc1cc2cc(CN(CCN3CCCC3)C(=O)Nc3ccc(F)cc3)c(=O)[nH]c2cc1OC | inconclusive: 31.6 µM [inhibitor, partial curve]
O=C(/C=C/c1ccccc1)c1ccc(O)cc1O | inconclusive: 35.5 µM [inhibitor, single point]
Cc1ccc2[nH]c(=O)c3cc(C(=O)NCCN4CCN(C)CC4)sc3c2c1 | inconclusive: 25.1 µM [inhibitor, partial curve]
COc1ccc(/C=N/NC(=O)c2[nH]c3ccc(Br)cc3c2-c2ccccc2)cc1 | inconclusive: 5.62 µM [inhibitor, single point]
O=C(CSC1=N/C(=C/c2ccc(Cl)c(Cl)c2)C(=O)N1c1ccccc1F)NC1CC1 | inconclusive: 3.55 µM [inhibitor, partial curve]
O=CN/N=C/c1c(O)ccc2ccccc12 | active: 11.2 µM
N#C/C(=C/c1ccc(N2CCCCC2)o1)c1cccc(F)c1 | inconclusive: 20 µM [inhibitor, single point]
CCC(C)COC(=O)C(C#N)c1nc2ccccc2nc1N1CCCCC1 (configuration not stated) | inconclusive: 39.8 µM [inhibitor, single point]
S=C(c1ccc(N2CCOCC2)cc1)N1CCOCC1 | inconclusive: 39.8 µM [inhibitor, single point]
Cc1ccc(C2CC(c3cccc(Br)c3)Nc3nnnn32)cc1 (configuration not stated) | inactive
O=C(O)c1cc(S(=O)(=O)Nc2ccc3oc(=O)sc3c2)ccc1O | inconclusive: 39.8 µM [inhibitor, single point]
O=c1oc2ccc(Cl)cc2nc1/C=C(\O)c1ccco1 | inconclusive: 39.8 µM [inhibitor, single point]
COc1cccc(NC(=O)COC(=O)CCCc2c[nH]c3ccccc23)c1 | inactive
CNC1=C(N(C(C)=O)c2ccc(Br)cc2)C(=O)c2ccccc2C1=O | inconclusive: 7.94 µM [inhibitor, full curve, poor fit]
COCCNc1nc(-c2ccccc2)nc2c1oc1ccccc12 | inactive
Cc1ccc2cc(CN(C(=O)c3cccs3)c3ccccc3)c(=O)[nH]c2c1 | inconclusive: 25.1 µM [inhibitor, single point]
CCOC(=O)c1cnn(-c2ccccc2)c1NC(=O)C(F)(F)C(F)(F)C(F)(F)F | inconclusive: 39.8 µM [inhibitor, single point]
C=CCSC1=C(C#N)C2(CCCCC2)C(C#N)C(=O)N1 (configuration not stated) | inactive
CN[C@@H]1[C@H](O[C@@H]2O[C@H](CO)[C@@H](N)[C@H](O)[C@@H]2O)O[C@H]2C[C@@H](N)[C@@H](O[C@H]3[C@@H](O)[C@H](O)[C@H](N)C[C@@H]3N)O[C@H]2[C@H]1O | inactive
Clc1cccc(Cl)c1CNc1ccc(N2CCCC2)cc1 | active: 12.6 µM
COc1cccc2c(C)c(C(=O)O)[nH]c12 | inconclusive: 25.1 µM [inhibitor, partial curve]
CC1CCN(CCCOc2ccc(Br)cc2Cl)CC1 | inconclusive: 31.6 µM [inhibitor, single point]
CC(C)CC(=O)Nc1ccc2nn(-c3ccccc3)nc2c1 | inconclusive: 14.1 µM [inhibitor, partial curve]

Structure (SMILES) | Potency
CCOc1ccccc1OCCN1CCC(Cc2ccccc2)CC1 | inconclusive: 39.8 µM [inhibitor, single point]
Cn1cc(C(=O)c2ccc(Cl)cc2Cl)cc1C(=O)N/N=C(\N)COc1ccc(F)cc1 | inconclusive: 25.1 µM [inhibitor, single point]
CCCCC(=O)NC(=S)Nc1ccccc1C(=O)Nc1ccccc1 | inconclusive: 28.2 µM [inhibitor, single point]
C=CC[n+]1c(-c2ccc(Cl)cc2Cl)csc1Nc1c(C)n(C)n(-c2ccccc2)c1=O | inactive
Cc1cc(C)c2nc(-c3ccccn3)cc(C(=O)NCc3ccco3)c2c1 | inconclusive: 25.1 µM [inhibitor, partial curve]
CCC(C(=O)NCc1ccccc1OC)c1ccccc1 (configuration not stated) | inactive
COCCN(CCOC)C(=O)c1cc2sc3ccccc3c2s1 | inconclusive: 35.5 µM [inhibitor, single point]
COc1cccc(/C=C/C(=O)OCC(=O)Nc2ccc(Cl)c(S(=O)(=O)N(C)C)c2)c1OC | inconclusive: 35.5 µM [inhibitor, single point]
COc1cc(C2C(C#N)=C(N)Oc3cc(C)n(Cc4ccccn4)c(=O)c32)cc2c1OCO2 (configuration not stated) | inactive
CCOC(=O)CNC(=O)CSc1nnc(SCC(=O)NCC(=O)OCC)s1 | inactive
S=C(NCc1ccc(Cl)c(Cl)c1)Nc1ccc2c(c1)OCO2 | inactive
CCn1cc(C(C)NC(=O)Nc2ccccc2C(=O)OC)c(C)n1 (configuration not stated) | inconclusive: 35.5 µM [inhibitor, single point]
Cc1ccc2oc3c(c(=O)c2c1)C(c1ccc(F)cc1)N(CCCN1CCOCC1)C3=O (configuration not stated) | inconclusive: 25.1 µM [inhibitor, single point]
O=C(O)Cn1c(=S)sc2ccccc21 | inactive
O=C(Cc1ccc(Cl)cc1)Nc1ccc(C(=O)N2CCOCC2)cc1 | inactive
Cc1ccc(NC(=S)N/N=C2\CC(C)(C)Oc3ccc(O)cc32)cc1 | inconclusive: 39.8 µM [inhibitor, single point]
Cc1ccc2[nH]c(C(=O)NN=C3CCCCC3)c(-c3ccccc3)c2c1 | inactive
COC(=O)C1=C(C)NC2=C(C(=O)CCC2)C1c1cn(Cc2ccc(Cl)cc2Cl)nc1-c1ccccc1 (configuration not stated) | inconclusive: 28.2 µM [inhibitor, partial curve]
CC(=O)Nc1sc(C)c(C)c1C(=O)OCC(=O)Nc1cc(S(=O)(=O)N2CCCCC2)ccc1Cl | inconclusive: 5.01 µM [inhibitor, single point]
N#Cc1ccc(-c2ccc(OCC(O)Cn3nnc4ccccc43)cc2)cc1 (configuration not stated) | inconclusive: 35.5 µM [inhibitor, partial curve]
Cc1ccc(N(CC(=O)Nc2cccc(C)c2)S(=O)(=O)c2cccc3nonc23)cc1 | inactive
CC(=O)c1sc(NC(=O)C2COc3ccccc3O2)nc1C (configuration not stated) | inactive
Cc1onc(-c2ccccc2)c1C(=O)Nc1nc(-c2ccc(F)c(F)c2)cs1 | inconclusive: 28.2 µM [inhibitor, single point]
CCCC(=O)Oc1ccc2c(C)cc(=O)oc2c1 | inconclusive: 31.6 µM [inhibitor, partial curve]
